# Measurements: the BET-seq Pho4 binding data (Le et al. 2018)
# This is one part of the list. Values were computed here from the reads of four pooled replicates and scatter widely.
# Target: T1, Pho4 (S. cerevisiae) (UniProt P07270)
# T1 sequence: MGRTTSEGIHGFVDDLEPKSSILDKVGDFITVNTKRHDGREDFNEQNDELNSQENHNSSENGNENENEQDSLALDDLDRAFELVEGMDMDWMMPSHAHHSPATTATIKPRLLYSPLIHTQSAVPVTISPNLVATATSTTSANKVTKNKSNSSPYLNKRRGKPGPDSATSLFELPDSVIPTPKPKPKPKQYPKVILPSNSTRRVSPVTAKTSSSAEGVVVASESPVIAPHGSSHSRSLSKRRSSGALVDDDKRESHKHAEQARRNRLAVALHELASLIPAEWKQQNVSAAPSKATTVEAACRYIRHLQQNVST
# Assay: relative binding free energy (BET-seq); higher = weaker binding
# Details: reference: library average
row,Sequence,relative binding free energy
1,AGTGTCACGTGATCTA,0.17 kcal/mol
2,GGGGACACGTGGTGTT,-0.01 kcal/mol
3,TTGAGCACGTGCGAAG,-0.01 kcal/mol
4,ATATTCACGTGTGCTT,0.06 kcal/mol
5,AGGCCCACGTGGGGTG,-0.27 kcal/mol
6,ATACTCACGTGAGGTA,0.46 kcal/mol
7,ATAGGCACGTGTGCAT,-0.05 kcal/mol
8,GCGGGCACGTGTAAGG,-0.11 kcal/mol
9,GTAGTCACGTGTGCTA,0.08 kcal/mol
10,CATGGCACGTGTATTA,0.04 kcal/mol
11,CTTGTCACGTGGTCGT,-0.06 kcal/mol
12,TAATGCACGTGTTTAA,-0.15 kcal/mol
13,AGTAACACGTGGGAAG,-0.01 kcal/mol
14,CTAGCCACGTGGGGGT,-0.27 kcal/mol
15,AGCATCACGTGAGGGA,0.34 kcal/mol
16,TTTTGCACGTGCATTT,0.08 kcal/mol
17,TCTGGCACGTGTGAGG,-0.01 kcal/mol
18,TTAATCACGTGGTAAA,0.09 kcal/mol
19,CTATGCACGTGGAGTT,-0.12 kcal/mol
20,TAATTCACGTGTTGGC,0.27 kcal/mol
21,AAGTTCACGTGGGTGA,0.17 kcal/mol
22,TTGGGCACGTGCTGCT,-0.25 kcal/mol
23,TGTTTCACGTGCTGTA,0.18 kcal/mol
24,GGTTTCACGTGTTTGA,0.34 kcal/mol
25,ATTTGCACGTGGTGTA,-0.11 kcal/mol
26,AGTGACACGTGTAAAG,0.17 kcal/mol

row,Sequence,relative binding free energy
1,TGTTACACGTGGGTAA,0.02 kcal/mol
2,AGTTGCACGTGGATGA,0.03 kcal/mol
3,GGGGTCACGTGTTGCG,0.09 kcal/mol
4,TTTTGCACGTGAAGTT,0.24 kcal/mol
5,GCTTTCACGTGGAGTG,0.27 kcal/mol
6,TAGTGCACGTGGACGG,-0.14 kcal/mol
7,TGGGACACGTGTGGCT,0.11 kcal/mol
8,TCGATCACGTGGAGGA,0.23 kcal/mol
9,TATATCACGTGTTAAT,0.04 kcal/mol
10,GTGTGCACGTGAGATT,0.42 kcal/mol
11,GTTGGCACGTGCGTAA,-0.15 kcal/mol
12,AGCGGCACGTGCTTTG,-0.01 kcal/mol
13,TGAATCACGTGGATAG,0.13 kcal/mol
14,CTGCGCACGTGTTGTG,-0.19 kcal/mol
15,AGGGTCACGTGCAAAG,0.25 kcal/mol
16,TTTCTCACGTGTTCTA,0.26 kcal/mol
17,CTTTGCACGTGTGATG,0.02 kcal/mol
18,CATATCACGTGATGAG,0.35 kcal/mol
19,GTGAACACGTGGGTTG,-0.15 kcal/mol
20,TGAACCACGTGGTTGT,-0.15 kcal/mol
21,GGAAACACGTGGGGGC,-0.07 kcal/mol
22,CTATTCACGTGAAGTA,0.63 kcal/mol
23,GGGAGCACGTGTGCGT,-0.21 kcal/mol
24,TATTTCACGTGTGCAG,0.22 kcal/mol
25,TTGAGCACGTGGAGGG,-0.06 kcal/mol
26,GTAAGCACGTGCTTGG,-0.14 kcal/mol

row,Sequence,relative binding free energy
1,TAGAGCACGTGTTGTG,-0.06 kcal/mol
2,TTCGGCACGTGGTGTT,-0.09 kcal/mol
3,CGAGGCACGTGGGGTG,-0.19 kcal/mol
4,GAAGACACGTGTTGGG,-0.11 kcal/mol
5,GGTCTCACGTGGGTAG,0.17 kcal/mol
6,TCGGACACGTGGTTGG,-0.02 kcal/mol
7,TACGGCACGTGTGTAG,-0.11 kcal/mol
8,GTATTCACGTGGATGA,0.25 kcal/mol
9,GTATACACGTGGAGCT,0.18 kcal/mol
10,GGGAGCACGTGGCCGG,-0.23 kcal/mol
11,GCGGTCACGTGTGAAG,0.32 kcal/mol
12,TGGGTCACGTGATGCA,0.22 kcal/mol
13,GGGAGCACGTGAAGTA,0.2 kcal/mol
14,GGTGGCACGTGACATG,0.01 kcal/mol
15,AGCATCACGTGAGTGG,0.27 kcal/mol
16,GTTTGCACGTGTCCTG,0.04 kcal/mol
17,GAGTGCACGTGAGGTC,0.29 kcal/mol
18,TCGTGCACGTGTGCTG,-0.05 kcal/mol
19,TGGTGCACGTGTCGCT,-0.2 kcal/mol
20,CAAGTCACGTGTTATT,0.06 kcal/mol
21,TTTCGCACGTGAATGG,0.13 kcal/mol
22,AATTTCACGTGTTGGA,0.32 kcal/mol
23,GGGTTCACGTGCTCTG,0.41 kcal/mol
24,CCAGGCACGTGTTGTG,-0.08 kcal/mol
25,TGGGTCACGTGCGTAA,0.01 kcal/mol
26,ATTTGCACGTGGTATC,-0.17 kcal/mol

row,Sequence,relative binding free energy
1,CGGGGCACGTGAGATG,0.25 kcal/mol
2,GCTATCACGTGGTGGG,0.05 kcal/mol
3,GGCATCACGTGGTTGC,0.2 kcal/mol
4,TGTTGCACGTGAGTCA,0.15 kcal/mol
5,CGCTGCACGTGGGCGG,-0.25 kcal/mol
6,TAGGTCACGTGGGGTG,-0.08 kcal/mol
7,TTGAGCACGTGGGACT,-0.2 kcal/mol
8,TGTGACACGTGGCGAA,0.05 kcal/mol
9,ATGATCACGTGCAGGG,0.07 kcal/mol
10,AGTTGCACGTGGCTCG,-0.07 kcal/mol
11,TGTTGCACGTGTTGAT,0.09 kcal/mol
12,CTGCGCACGTGGCGGG,-0.17 kcal/mol
13,ATTTGCACGTGACTTT,0.05 kcal/mol
14,TGAAGCACGTGAGTTT,0.13 kcal/mol
15,AGCAACACGTGGGGGG,-0.12 kcal/mol
16,TGTGACACGTGTTGTT,0.13 kcal/mol
17,GAGGGCACGTGGTCGC,-0.18 kcal/mol
18,TGCGGCACGTGAAGTT,0.13 kcal/mol
19,CATGTCACGTGTGGAG,0.02 kcal/mol
20,TTGTACACGTGAGAAT,0.24 kcal/mol
21,AGTGTCACGTGAGTAT,0.18 kcal/mol
22,TTTGGCACGTGGCTCT,-0.16 kcal/mol
23,TAATTCACGTGGTATG,0.27 kcal/mol
24,GGTTACACGTGAAGGC,0.28 kcal/mol
25,ATGCTCACGTGGGGAT,0.14 kcal/mol
26,AGTGGCACGTGGTAAT,-0.15 kcal/mol

row,Sequence,relative binding free energy
1,ATAGGCACGTGTAGAT,0.01 kcal/mol
2,TTTCGCACGTGAGCGG,-0.04 kcal/mol
3,CTGTACACGTGTATAT,0.11 kcal/mol
4,GGAGCCACGTGGGGTC,-0.07 kcal/mol
5,TATATCACGTGATGTT,0.22 kcal/mol
6,GTTCGCACGTGTCGGT,-0.03 kcal/mol
7,GGATCCACGTGTGTGA,0.18 kcal/mol
8,CTGTACACGTGAGGGT,0.23 kcal/mol
9,AAGGTCACGTGTGGAT,0.18 kcal/mol
10,CAACTCACGTGTGGGG,0.3 kcal/mol
11,TTTGACACGTGGCTTG,0.06 kcal/mol
12,TGGTGCACGTGGAGGA,0 kcal/mol
13,GATGGCACGTGTTTGG,0.09 kcal/mol
14,GTTTACACGTGTCAGG,0.18 kcal/mol
15,TTGGTCACGTGTTTAC,0.11 kcal/mol
16,GGGTACACGTGGGCGC,-0.03 kcal/mol
17,TCGGTCACGTGTAGAG,-0.01 kcal/mol
18,TAAGTCACGTGTAGTA,0.18 kcal/mol
19,AAGGTCACGTGGCTGC,0.06 kcal/mol
20,CCCGTCACGTGGGTGG,-0.02 kcal/mol
21,AGCTGCACGTGTAAGG,0.07 kcal/mol
22,AATGACACGTGTGGTC,0.1 kcal/mol
23,AGTAGCACGTGGCGTA,-0.21 kcal/mol
24,TGACCCACGTGGTGGG,-0.17 kcal/mol
25,AGCAACACGTGGTGGT,-0.13 kcal/mol
26,GTTCGCACGTGTGATG,-0.05 kcal/mol

row,Sequence,relative binding free energy
1,ACTGTCACGTGGTGTC,0.14 kcal/mol
2,GGTGGCACGTGGGGAC,-0.05 kcal/mol
3,TTCTGCACGTGGAATG,0.08 kcal/mol
4,GGAGGCACGTGTTCTA,0.04 kcal/mol
5,TAGGTCACGTGCAGGC,0.19 kcal/mol
6,GCGGTCACGTGCAGGG,0.19 kcal/mol
7,CGGGACACGTGATGGT,0.28 kcal/mol
8,TTAGGCACGTGGCAGT,-0.14 kcal/mol
9,ATATTCACGTGTAGTA,0.19 kcal/mol
10,TGTCTCACGTGTTCAG,0.22 kcal/mol
11,CGAAGCACGTGGTAGG,-0.24 kcal/mol
12,AAGGTCACGTGGGTAG,0.06 kcal/mol
13,ATAGTCACGTGCGTAA,0.15 kcal/mol
14,GCGTTCACGTGTGAGA,0.53 kcal/mol
15,AGCGGCACGTGTGATG,-0.06 kcal/mol
16,GGGTCCACGTGAATGG,0.31 kcal/mol
17,CATGTCACGTGCGGTA,-0.01 kcal/mol
18,AATATCACGTGATTGG,0.27 kcal/mol
19,GTCGGCACGTGTGCGC,0.07 kcal/mol
20,TGAGGCACGTGTTGCA,-0.11 kcal/mol
21,ATCGGCACGTGATAGT,0.09 kcal/mol
22,TTTGTCACGTGACTGC,0.25 kcal/mol
23,GTAGGCACGTGAATTA,0.13 kcal/mol
24,TTCGGCACGTGAGGTC,0.2 kcal/mol
25,GGATTCACGTGTTCGA,0.18 kcal/mol
26,TAAGACACGTGGTTTG,0.11 kcal/mol

row,Sequence,relative binding free energy
1,GTTTCCACGTGGTTTG,0.05 kcal/mol
2,GCTAGCACGTGGGGCT,-0.15 kcal/mol
3,AGTGGCACGTGGTGGA,-0.06 kcal/mol
4,ACGAGCACGTGGGAGG,-0.26 kcal/mol
5,TGATACACGTGTTAAG,0.22 kcal/mol
6,TTAAGCACGTGGGTTA,-0.22 kcal/mol
7,TTGTTCACGTGCAGTG,0.22 kcal/mol
8,TATAACACGTGGTTTG,-0.05 kcal/mol
9,TATTGCACGTGTGGAG,0.07 kcal/mol
10,GGTTGCACGTGTTGAC,0.05 kcal/mol
11,TCTGGCACGTGGGGAC,-0.2 kcal/mol
12,ATGATCACGTGTTTAT,0.14 kcal/mol
13,TTTCACACGTGGTTGA,0.05 kcal/mol
14,ATATTCACGTGTTAAT,0.11 kcal/mol
15,AGATGCACGTGATATG,0.01 kcal/mol
16,GCGTGCACGTGTGGTG,0.08 kcal/mol
17,GAGTACACGTGGGTTG,0.04 kcal/mol
18,TGAGGCACGTGTCCGG,-0.2 kcal/mol
19,GGCAACACGTGTTAGG,0.18 kcal/mol
20,TTCGGCACGTGGTCTT,-0.08 kcal/mol
21,GAGCTCACGTGGAGGT,0.43 kcal/mol
22,GGCATCACGTGAATGG,0.4 kcal/mol
23,ATCGACACGTGGGGGT,-0.22 kcal/mol
24,GGTGTCACGTGTTAGA,0.19 kcal/mol
25,AGGAACACGTGGCGGT,-0.01 kcal/mol
26,GATTACACGTGTATTT,0.32 kcal/mol

row,Sequence,relative binding free energy
1,TTATTCACGTGTTTGG,0.35 kcal/mol
2,GAGGCCACGTGTGTAT,0.08 kcal/mol
3,TTTATCACGTGTGATT,0.3 kcal/mol
4,AGTATCACGTGGAGGG,0.09 kcal/mol
5,GAGTACACGTGGCGTG,-0.06 kcal/mol
6,CGGTTCACGTGTTGGA,0.24 kcal/mol
7,CGGTACACGTGTATGT,0.06 kcal/mol
8,TTGATCACGTGATCAG,0.26 kcal/mol
9,GACGGCACGTGTAATG,0.19 kcal/mol
10,AAGGGCACGTGGCGGT,-0.09 kcal/mol
11,GTAGGCACGTGCGCTG,-0.18 kcal/mol
12,TTTGTCACGTGTATCG,0.15 kcal/mol
13,AGTTTCACGTGTTAGA,0.15 kcal/mol
14,TCTAACACGTGTTTTA,0.13 kcal/mol
15,TGGCGCACGTGGGAAG,-0.2 kcal/mol
16,GGGCTCACGTGATTGA,0.44 kcal/mol
17,GTGTGCACGTGAGGCG,0.19 kcal/mol
18,GGGTGCACGTGCGGCA,-0.08 kcal/mol
19,TTTGTCACGTGGAAAG,0.21 kcal/mol
20,TTTGACACGTGTGTCG,0.12 kcal/mol
21,GGTGCCACGTGTAGAG,-0.05 kcal/mol
22,CGGGACACGTGAAGGG,0.31 kcal/mol
23,TCAAACACGTGTGGGA,0.26 kcal/mol
24,TGGATCACGTGTTATC,0.29 kcal/mol
25,CGTTTCACGTGTGTAA,0.27 kcal/mol
26,AAGGGCACGTGGGAAC,-0.12 kcal/mol

row,Sequence,relative binding free energy
1,ATTGTCACGTGGTGCT,0.08 kcal/mol
2,GTGGCCACGTGATGTT,0.18 kcal/mol
3,TCTTGCACGTGGGGGT,-0.18 kcal/mol
4,TTCCGCACGTGTGAGT,0.08 kcal/mol
5,GGGTTCACGTGCAAGG,0.25 kcal/mol
6,TTTGACACGTGCGTTG,-0.05 kcal/mol
7,AGCTACACGTGGTTTT,0.07 kcal/mol
8,GTCGGCACGTGCTGGG,0.02 kcal/mol
9,TATCGCACGTGTGTGA,-0.01 kcal/mol
10,TGTCTCACGTGTTGCT,0.1 kcal/mol
11,ATTGTCACGTGATGCG,0.2 kcal/mol
12,TTTATCACGTGCGCTT,0.05 kcal/mol
13,TGGGACACGTGCAGGA,0.04 kcal/mol
14,AATAGCACGTGCGGGC,-0.01 kcal/mol
15,AGTATCACGTGTAATG,0.14 kcal/mol
16,ATTAACACGTGGGTGA,-0.05 kcal/mol
17,AAAGCCACGTGGTGGG,-0.2 kcal/mol
18,ATTGGCACGTGAGGGC,0.18 kcal/mol
19,ATTCGCACGTGTTTAT,0.05 kcal/mol
20,ATTGTCACGTGATAGC,0.36 kcal/mol
21,GCATGCACGTGGAAGG,0.11 kcal/mol
22,AGAGTCACGTGAGAAG,0.43 kcal/mol
